# Results taken from the supplement of paper PMC11417369.
# The list shows a part of the results.
# System: PfAP2-HC AP2 domain (GST-tagged)
# Assay: gcPBM binding intensity (ln(normalized median fluorescence intensity)); higher = stronger DNA binding
# Method in brief: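 In this array assay, P. falciparum DNA-binding domains with a GST tag, expressed in E. coli, were applied for 1 h to primer-extended double-stranded 36-bp intergenic genomic probes and negative controls on an Agilent 4 × 180k array. Bound protein was visualised with Alexa488 anti-GST antibody at 488 nm. Binding intensity is the highest Masliner-normalised natural-log median intensity across replicate spots of either probe orientation.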
row,Sequence,gcPBM binding intensity (ln)
1,TTTTTAATACAAAAAAAATAATATGTTATATTTCAA [CACACA_negctrl_site35],9.38
2,TACAATTTATGACACACACACAATAATACCTATATA [CACACA_site6704],10.3
3,TATATATATATATGTGCACACATAAAGATATTATTT [CACACA_site3734],10.4
4,AATAAAATAATAGGCACACATATATATATATATTAT [CACACA_site273],9.9
5,ATATATCTACATATATGTACATATATGTATATGTAT [XGTACX_site5432],9.8
6,ATATCCTACTTCTAGTGTACATATATGGACTGATGA [XGTACX_site3683],9.54
7,CGTATTTTAATATTTACACACTTATTTTTTATATAA [CACACA_site125],9.78
8,AATAAAAAAATAAAAAAAAAAAAAAATAAAAAAAAA [GTGCAC_negctrl_site12],9.42
9,TTTTGTAAAAGGTATATATATATATATATATATATA [GTGCAC_negctrl_site734],9.38
10,TTTATATAGAAAAATTGTACGAATTACTTTTTTATA [XGTACX_site6843],9.47
11,TATAGCATATTTCACACACACATAATGAATATTATA [CACACA_site3545],10.1
12,TTATTTTCTTTCTATGCACACGCACGTATTTGCCCA [CACACA_site9104],9.93
13,TATAGTAAAATTAGGGTGCTTTTGTAACAAAAAAAA,9.74
14,TGCTTCATAAATAAAACATGCAATATAGAAATTAAA [TGCATGCA_site690],9.48
15,AGAGTAGGAAATGGAAAAATAAAATAAATAAATAAA [XGTACX_negctrl_site69],9.66
16,AAATATATATACCACACACACATACCTCTATTTGTA [CACACA_site1854],11.1
17,AATCCTTTAAAACACACACACAAAAAAAAAAAAAAA [CACACA_site642],10.4
18,TTTAACGTTGAATATACACACATATATTTATTTATA [CACACA_site7695],9.81
19,AAAATGTACTTTTTCTAAAGAGTAATGATGCTTGAT [CACACA_negctrl_site1124],9.52
20,ATATATCATAATAAAAGTACTTATATATTTTATATA [XGTACX_site560],9.51
21,AAAATAAATAAATATACACACCATATATATATTTTT [CACACA_site5573],9.85
22,TACAAAAAAAGATGATGTACAATGAAAAATAAGAAA [XGTACX_site5840],9.87
23,AAAAAAAAAAAAAACACACACACAAATACAAATACA [CACACA_site414],11.5

row,Sequence,gcPBM binding intensity (ln)
1,ATAAATAATTGTAGTTGTACATGATATTTTTATTAC [XGTACX_site550],9.66
2,AAATGGACCTAATTATCACACATTATACTCGTTTTC [CACACA_site5996],9.77
3,TTGTTAAAATTATTAAGTTAAATATCGATTTGTAAA [XGTACX_negctrl_site429],9.29
4,TATAAGTTTATATATACACACATATATATATATATA [CACACA_site3274],9.97
5,ATATTTATAACTTGTACACACAAATATGCATATATA [CACACA_site7583],9.89
6,TTAAAATTTTTTTTTTTTTTTTTTTTTTTTTTTTTC [CACACA_negctrl_site957],8.97
7,TTATTATTCCCTCATTTTGTTACCATTATTTCAATT [CACACA_negctrl_site1023],9.92
8,AAAATAAAAAGAAAAAATAAAAAGAAAAAATAAAAA [CACACA_negctrl_site120],9.57
9,AGTGAAAAAAAATTTACACACATAAAATATAAACGA [CACACA_site3724],9.81
10,AAAAAAAATATAAGTGGTACTCACATAAAGACATAT [XGTACX_site3709],9.93
11,AAATAAAATACATATAAACACACATATAAACCAACA [CACACA_site8789],10.2
12,TTTTTTATTCTTTTTGCACACAGGAAATTTACAGAT [CACACA_site1090],9.81
13,TTTTTAGTTCATTAAACACACAAAAAAAAAAATAAA [CACACA_site6035],9.53
14,TAATACTTTTAATCTACACACGCTGAGACATGCTTT [CACACA_site1484],9.76
15,TTATATAATCCTTTCAAACACACAAAATATAATTAA [CACACA_site1830],9.62
16,ACATAAGACACAAATACACACAAAAATATGTAACAA [CACACA_site7836],10.1
17,TTTTATGAAAAGTATTGTACGTATAATTTATATGTA [XGTACX_site1639],9.53
18,TGCTATAATTTATATACACACAAATATATACGCATA [CACACA_site4096],9.83
19,TATGTATGTGCTTGTGCGCACCGATAATATAGCCAA,9.68
20,TCTCATAGTAGACACACACACACACGCACATATATA [CACACA_site6916],11.3
21,ATAATAATTAACCTATGTACATAGGAAAGTCATAAA [XGTACX_site4387],9.83
22,AAAAAAAAAAAACACACACACACATACACATACATA [CACACA_site2858],10.5
23,GAAGAAAAATAAAAAGTGCAAAAAAAGTAAAAATTT [GTGCAC_site9897],9.79

row,Sequence,gcPBM binding intensity (ln)
1,TATATAAATAGACACACACACACCTTATAATTACTA [CACACA_site7828],10.8
2,TTGGAAAAAGTGAAATGTACATATATATTTATTATT [XGTACX_site6946],9.53
3,AAAGGATTTATACTAGTGCAAAAATATAAAAATATA,9.72
4,AATAATAAAGTGAACACACACATATAACATCTATAT [CACACA_site7868],10.1
5,GAAGTTTTTTAAAGATGTACTTTTTAAAAATAATCT [XGTACX_site263],9.35
6,TCCATATATGCCTTATGTACATATACCAAATTAACC [XGTACX_site6513],9.65
7,TTTGGCTAGTTAGGCCGTACATGTAAATAATATATA [XGTACX_site1138],9.47
8,TTCTTATAAATATACACACACAAAATATCTACAATG [CACACA_site6487],10
9,TGTGTAAGATCTTGGATGATGATAAGAATCTACTAG [CACACA_negctrl_site1167],9.47
10,TTATAAGATTTATGTACACACATATACTCACCTCTA [CACACA_site729],9.92
11,CCTTAAAATAAGATATGTACGCAAAGGAAAACAAAG [XGTACX_site6057],9.9
12,AATATAAATACTCCTACACACATATATATATATATA [CACACA_site3010],10.2
13,GACACAAAAAAATAATAATAATAATAATAATAAATA [XGTACX_negctrl_site145],9.75
14,ACAAATACAAAAAAAGGTACACACATAATATATTTA [XGTACX_site5515],10.1
15,TTTGTTTTTAATTTCGCACACACCTTGTGGAAAAAA [CACACA_site577],9.88
16,AAATATTTTATACTTGCACACAAAATATATTAAAAT [CACACA_site8606],9.77
17,ATAATAAATAAAATAACACACATATATAAATATATA [CACACA_site170],9.87
18,ATTAATAAAAAATTTTAAAAAATAAATAAAATAAAA [TGCATGCA_negctrl_site113],9.36
19,ATTTTTATTCAGTTCACACACGCTTTAATATTATAT [CACACA_site3465],10
20,AAAATATTTTTATAATGTACATATAGTTGTATTTGT [XGTACX_site8724],9.65
21,ATATATATTTAACAATGTACTTATTCAGAGAATAAT [XGTACX_site574],9.38
22,AAGTTGAAATAATGTGCACACATTTTTTTTTTTTTT [CACACA_site3368],9.86
23,CCCTTAATATAAAGCACACATATATATAATATATAT [CACACA_site4439],9.79

row,Sequence,gcPBM binding intensity (ln)
1,TATCCTTATATTTGCACACACACACTAGAAAATGAA [CACACA_site4714],10.3
2,AAAAAAAAAAAAAAAAAAAACGAAAAACATCAAAGA [TGCATGCA_negctrl_site78],9.51
3,ACTAAAAAATATATATGTACATAATAATATATTATT [XGTACX_site1260],9.68
4,ATTTATACTTATGTATGTACATATATACATATGTAT [XGTACX_site3979],9.87
5,ATAATAAAATAACTAGTGCATATTCAAAGGATTCAG,9.83
6,ATTATGTGTCCACATGTAAGCTATCTTACTTATATA [CACACA_negctrl_site1227],9.76
7,CATATTTGTGGACACACACACATATTTATATATATA [CACACA_site5887],10.4
8,ATAGTTACACAATGGTGTACAAGTCAATATATTTCT [XGTACX_site4614],9.67
9,TACAAAAAAATAAAAAAAATTAAATAAATAAATATA [CACACA_negctrl_site45],9.45
10,ACAATGTCATTTGCTAGTACGCATATTGGTTGTAAA [XGTACX_site8924],9.56
11,ATTTTTTTTTTTTTATGTACATATAGGTGCAAATCA [XGTACX_site6748],9.35
12,TAAAAAAAAAAAAAAAGTACACACATACATATAAAT [XGTACX_site3752],9.97
13,TATTTTTTTTTTTTTTTTTTTTTAAAACATATCAAT [CACACA_negctrl_site925],9.44
14,ATATATATATATAATTGTACATATAATATAATATTA [XGTACX_site5216],9.55
15,ATATATATTATATATAGTACTTTTTTGCGCAAATAT [XGTACX_site6849],9.49
16,AATATGTTATAAATATGTTATAAATAATAAATAAAT [GTGCAC_negctrl_site135],9.75
17,AACACATGCTTGGTCACACACGTATGCATATTTAAA [CACACA_site5206],10
18,ATATTTATATATATCATACACACTAATATGTATATT [CACACA_site3409],9.78
19,TACCATATTTCTTCAAGTACGCATTATGTTAAAAAG [XGTACX_site345],9.42
20,TACATATATTTTTATACATGCATAACTTAGGACTTT [TGCATGCA_site113],9.57
